Test results from the supplement of paper PMC3334620.
Whole data set: some 33,000 sequences, median “E-score (-0.5 to 0.5)” near -0.043, cut for the highest 2% near 0.37. The list shows a part of the results.

Biological target: T1, Upc2 (UniProt Q12151)
T1 sequence: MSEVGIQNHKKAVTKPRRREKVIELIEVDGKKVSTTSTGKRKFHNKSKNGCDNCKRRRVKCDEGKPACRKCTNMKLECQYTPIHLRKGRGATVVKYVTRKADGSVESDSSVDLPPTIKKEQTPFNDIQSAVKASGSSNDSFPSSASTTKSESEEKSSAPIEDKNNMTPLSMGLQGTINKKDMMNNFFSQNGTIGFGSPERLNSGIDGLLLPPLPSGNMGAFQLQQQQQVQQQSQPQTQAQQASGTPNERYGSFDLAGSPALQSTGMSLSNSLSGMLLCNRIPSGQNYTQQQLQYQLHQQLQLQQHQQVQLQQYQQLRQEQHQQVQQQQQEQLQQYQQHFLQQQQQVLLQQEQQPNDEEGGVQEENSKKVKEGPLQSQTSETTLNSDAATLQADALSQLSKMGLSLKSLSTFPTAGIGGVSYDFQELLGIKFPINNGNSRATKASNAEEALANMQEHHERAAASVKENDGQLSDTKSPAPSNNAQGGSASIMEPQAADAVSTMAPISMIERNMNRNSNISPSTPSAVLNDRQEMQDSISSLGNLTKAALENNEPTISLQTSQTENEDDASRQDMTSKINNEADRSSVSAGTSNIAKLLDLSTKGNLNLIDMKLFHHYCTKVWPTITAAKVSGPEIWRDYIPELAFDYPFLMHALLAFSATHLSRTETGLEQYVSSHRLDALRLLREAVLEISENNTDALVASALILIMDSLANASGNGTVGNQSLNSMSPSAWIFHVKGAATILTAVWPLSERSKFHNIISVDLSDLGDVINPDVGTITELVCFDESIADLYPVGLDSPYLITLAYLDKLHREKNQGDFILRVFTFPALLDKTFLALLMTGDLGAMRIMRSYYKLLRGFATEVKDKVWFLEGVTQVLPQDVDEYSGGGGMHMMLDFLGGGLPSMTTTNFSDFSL
Experiment: PBM E-score (8-mer binding enrichment) (E-score (-0.5 to 0.5)); higher = stronger / more preferred TF binding; most listed sequences are background and not binding sites
Settings: protein concentration: 200 nM; construct: GST-full length
How it was run: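 GST-tagged yeast TFs (full-length or DNA-binding domain) were made by PURExpress in vitro transcription/translation and applied at about 100-200 nM to universal all-10-mer Agilent arrays. The arrays were made double-stranded by primer extension, on fresh or once-stripped slides. Bound protein was detected with fluorescent anti-GST, and scans were normalised with masliner. Each ungapped eight-base word, pooled with its reverse complement, received an E-score (modified Wilcoxon-Mann-Whitney statistic) from the Universal PBM Analysis Suite.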

Row | Sequence | PBM E-score
1 | CACAGCAC | -0.222
2 | ACAAGTAC | 0.144
3 | GGCTACAC | -0.029
4 | AATTTTCG | 0.087
5 | AGGACAAG | -0.0298
6 | CGTATATA | 0.458
7 | CTCACAAG | -0.241
8 | GAGATCAA | 0.0415
9 | AAGCTGAT | -0.129
10 | CCTATAGA | -0.201
11 | CCCCGAAG | -0.224
12 | ATGTTTCA | -0.0195
13 | GAAGGGAC | -0.24
14 | AAGACCAT | -0.0684
15 | CCGGGACC | -0.137
16 | CGGGATTC | 0.125
17 | AACGCTAA | 0.0548
18 | CTTTGGTC | 0.0127
19 | AGTTCTCC | -0.276
20 | CTAAATCC | 0.115
21 | GCTTGTAA | 0.0348
22 | ATCCATGG | -0.218

Row | Sequence | PBM E-score
23 | CCTTGGTA | -0.0736
24 | AGCACTAA | 0.0655
25 | AGGTAGGC | -0.151
26 | CACGTCGA | -0.104
27 | CATTGAGG | -0.271
28 | AAACTGGG | -0.182
29 | CTATGCCC | -0.0652
30 | ATTACGCA | 0.0704
31 | CGAGGTCC | 0.0782
32 | AAACCTCT | -0.0987
33 | ATTCCATG | -0.0609
34 | GACCATCC | -0.254
35 | GATATACA | 0.0532
36 | AGAGTCCG | -0.0406
37 | ACCTTGTC | -0.253
38 | AGAGTTCC | -0.0879
39 | ACTCCGTG | -0.297
40 | CGCGATAA | 0.018
41 | CAGATGGA | -0.0266
42 | ACTACACA | 0.162
43 | AACAGGTC | 0.056
44 | ATGAAAAC | 0.133

Row | Sequence | PBM E-score
45 | TGACAGAA | 0.0501
46 | CCGATAAA | -0.00359
47 | CACAGACA | -0.00356
48 | CTCCTAAG | -0.273
49 | GGGTGATA | 0.0644
50 | AGGGGCCG | -0.158
51 | ATGCATTG | -0.178
52 | TCGCGTCA | -0.0308
53 | CCCGGAGC | 0.0981
54 | GTCCATTA | 0.0585
55 | ATGTCTGC | -0.15
56 | AACGACCC | 0.365
57 | GCACTATA | 0.216
58 | CCGCCATA | -0.0589
59 | CATCTCCG | -0.0798
60 | CCCACTCC | -0.17
61 | AAGCCACA | -0.0657
62 | ATTCTTCC | -0.17
63 | GCACACCA | -0.124
64 | GGCTCACC | -0.23
65 | TGCAACAA | -0.117
66 | GTATTAGA | 0.213

Row | Sequence | PBM E-score
67 | GCGGAGCC | -0.0172
68 | TCAAACCA | 0.137
69 | ACCAGCAG | -0.211
70 | CACTCTAC | 0.0382
71 | CGGTGGTC | 0.122
72 | AGCCAGGA | -0.126
73 | ACATTCAT | -0.214
74 | ATCGGGCA | -0.148
75 | CTCTATCC | -0.209
76 | CTTGCTCC | -0.255
77 | GTCGACTA | 0.117
78 | GGTTCTAC | -0.0373
79 | AATTCAAG | 0.0162
80 | ACTTGGGA | -0.224
81 | GCTCAAAA | 0.00891
82 | ATAAGATG | 0.188
83 | ATACCACC | -0.0309
84 | CATGCTAG | -0.119
85 | CATATGTC | 0.0205
86 | ATTTTCTC | -0.105
